Experimental data reported in US20120237507A1 (Hoffmann-La Roche, published 2012).

Molecular target: T1, c-Met on A549 cells (UniProt P08581)
T1 construct: whole, on cells; Endogenous receptor on A549 cells; also called cell surface c-Met; c-Met receptor
Test: half-maximal binding, flow cytometry on A549 cells
Procedure: A549 were detached and counted. 1.5×10e5 cells were seeded per well of a conical 96-well plate. Cells were spun down (1500 rpm, 4° C., 5 min) and incubated for 30 min on ice in 50 μL of a dilution series of the respective bispecific antibody in PBS with 2% FCS (fetal calf serum). Cells were again spun down and washed once with 200 μL PBS containing 2% FCS followed by a second incubation of 30 min with 5 μg/mL of Alexa488-coupled antibody directed against human Fc which was diluted in PBS containing 2% FCS (Jackson Immunoresearch, 109116098). Cells were spun down washed twice with 200 μL PBS containing 2% FCS, resuspended in BD CellFix solution (BD Biosciences) and incubated for at least 10 min on ice. Mean fluorescence intensity (mfi) of the cells was determined by flow cytometry (FACS Canto, BD). Mfi was determined at least in duplicates of two independent stainings Flow cytometry spectra were further processed using the FlowJo software (TreeStar). Half-maximal binding was determined using XLFit 4.0 (IDBS) and the dose response one site model 205.
A cell suspension was incubated with a threefold dilution series (100-0.0003 μg/mL) of the indicated antibodies. Bound antibodies were visualized with a secondary Alexa488-coupled antibody binding to the constant region of human immunoglobulin. Fluorescence intensity of single cells was measured on a FACS Canto (BD Biosciences) flow cytometer.

T1 sequence (P08581 25-1390 limits assumed): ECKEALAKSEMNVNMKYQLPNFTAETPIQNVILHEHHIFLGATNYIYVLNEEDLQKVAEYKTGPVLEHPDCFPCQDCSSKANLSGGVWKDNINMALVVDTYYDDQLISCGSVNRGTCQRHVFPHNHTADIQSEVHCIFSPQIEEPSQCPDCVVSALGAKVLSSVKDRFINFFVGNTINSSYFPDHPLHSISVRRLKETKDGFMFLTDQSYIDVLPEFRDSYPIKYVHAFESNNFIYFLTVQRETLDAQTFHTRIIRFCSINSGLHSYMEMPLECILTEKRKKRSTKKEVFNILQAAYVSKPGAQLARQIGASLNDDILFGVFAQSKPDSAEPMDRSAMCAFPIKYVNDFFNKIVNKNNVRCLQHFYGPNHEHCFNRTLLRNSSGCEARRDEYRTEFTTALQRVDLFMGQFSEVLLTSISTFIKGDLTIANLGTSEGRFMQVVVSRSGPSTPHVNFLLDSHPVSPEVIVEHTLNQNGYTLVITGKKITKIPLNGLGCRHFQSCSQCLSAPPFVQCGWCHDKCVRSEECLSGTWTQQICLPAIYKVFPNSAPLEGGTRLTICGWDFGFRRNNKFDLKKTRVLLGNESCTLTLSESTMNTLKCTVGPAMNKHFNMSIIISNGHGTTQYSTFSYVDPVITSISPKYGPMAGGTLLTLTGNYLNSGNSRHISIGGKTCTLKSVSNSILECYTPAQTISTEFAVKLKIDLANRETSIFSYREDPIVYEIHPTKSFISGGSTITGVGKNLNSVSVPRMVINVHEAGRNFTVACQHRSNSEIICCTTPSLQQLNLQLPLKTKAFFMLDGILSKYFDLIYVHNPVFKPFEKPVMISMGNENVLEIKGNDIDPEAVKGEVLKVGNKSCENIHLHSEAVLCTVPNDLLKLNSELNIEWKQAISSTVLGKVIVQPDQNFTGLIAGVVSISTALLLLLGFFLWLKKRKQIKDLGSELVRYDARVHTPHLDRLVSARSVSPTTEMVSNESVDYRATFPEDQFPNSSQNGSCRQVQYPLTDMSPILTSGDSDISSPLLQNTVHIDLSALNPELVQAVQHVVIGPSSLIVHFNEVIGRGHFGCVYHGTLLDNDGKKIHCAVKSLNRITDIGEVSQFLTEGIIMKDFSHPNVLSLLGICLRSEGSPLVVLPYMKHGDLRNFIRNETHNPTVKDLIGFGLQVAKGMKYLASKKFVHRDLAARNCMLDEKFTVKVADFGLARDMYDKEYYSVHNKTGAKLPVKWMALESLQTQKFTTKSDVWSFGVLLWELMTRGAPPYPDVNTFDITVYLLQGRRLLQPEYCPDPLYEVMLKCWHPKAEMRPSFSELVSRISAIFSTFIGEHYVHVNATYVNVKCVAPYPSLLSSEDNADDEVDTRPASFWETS

EC50: 1.57 nM
B1: c-Met 5D5 MoAb (“wt”) (other)
chain 1: DIQMTQSPSSLSASVGDRVTITCKSSQSLLYTSSQKNYLAWYQQKPGKAPKLLIYWASTRESGVPSRFSGSGSGTDFTLTISSLQPEDFATYYCQQYYAYPWTFGQGTKVEIKSS[human IgG1 constant region not shown]
chain 2: EVQLVESGGGLVQPGGSLRLSCAASGYTFTSYWLHWVRQAPGKGLEWVGMIDPSNSDTRFNPNFKDRFTISADTSKNTAYLQMNSLRAEDTAVYYCATYRSYVTPLDYWGQGTLVTVSSASVAAPSVFIFPPSDEQLKSGTASVVCLLNNFYPREAKVQWKVDNALQSGNSQESVTEQDSKDSTYSLSSTLTLSKADYEKHKVYACEVTHQGLSSPVTKSFNRGE[human IgG1 Fc not shown]
notes: Monovalent antibody-like heterodimer of two modified heavy chains (CH1-CL exchange), no light chains, no knobs-into-holes; also called c-Met MoAb; MoAb c-Met
